Assay results: PMC8382200
These are yes or no findings as the source states them, for the method shown. In cells and extracts the contact can be indirect. Some entries that bind do so weakly or less than the wild type.

Protein sequences, listed by entry. Tags and fused reporters are not part of them. Lines headed by an entry give the natural chain unless they say otherwise; changes in a name come on top. Residues count along the entry.
UniProt P35240: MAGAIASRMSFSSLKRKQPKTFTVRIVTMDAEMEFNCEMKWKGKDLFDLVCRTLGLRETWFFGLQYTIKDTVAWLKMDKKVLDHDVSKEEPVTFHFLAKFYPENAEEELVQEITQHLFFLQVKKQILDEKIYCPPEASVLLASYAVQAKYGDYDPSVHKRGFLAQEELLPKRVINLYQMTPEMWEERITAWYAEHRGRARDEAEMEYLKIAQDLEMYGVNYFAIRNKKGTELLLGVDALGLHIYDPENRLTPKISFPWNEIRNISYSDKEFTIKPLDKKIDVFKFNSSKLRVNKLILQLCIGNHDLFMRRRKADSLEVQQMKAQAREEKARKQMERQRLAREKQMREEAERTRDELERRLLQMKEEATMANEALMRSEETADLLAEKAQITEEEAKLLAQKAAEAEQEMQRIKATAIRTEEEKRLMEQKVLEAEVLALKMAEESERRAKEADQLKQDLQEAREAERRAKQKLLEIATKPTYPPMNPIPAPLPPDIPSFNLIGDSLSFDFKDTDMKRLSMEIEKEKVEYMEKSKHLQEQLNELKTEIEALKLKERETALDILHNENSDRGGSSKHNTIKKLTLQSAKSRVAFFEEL
recombinant GST-Merlin FERM domain: residues 22-311 of P35240
UniProt P11171: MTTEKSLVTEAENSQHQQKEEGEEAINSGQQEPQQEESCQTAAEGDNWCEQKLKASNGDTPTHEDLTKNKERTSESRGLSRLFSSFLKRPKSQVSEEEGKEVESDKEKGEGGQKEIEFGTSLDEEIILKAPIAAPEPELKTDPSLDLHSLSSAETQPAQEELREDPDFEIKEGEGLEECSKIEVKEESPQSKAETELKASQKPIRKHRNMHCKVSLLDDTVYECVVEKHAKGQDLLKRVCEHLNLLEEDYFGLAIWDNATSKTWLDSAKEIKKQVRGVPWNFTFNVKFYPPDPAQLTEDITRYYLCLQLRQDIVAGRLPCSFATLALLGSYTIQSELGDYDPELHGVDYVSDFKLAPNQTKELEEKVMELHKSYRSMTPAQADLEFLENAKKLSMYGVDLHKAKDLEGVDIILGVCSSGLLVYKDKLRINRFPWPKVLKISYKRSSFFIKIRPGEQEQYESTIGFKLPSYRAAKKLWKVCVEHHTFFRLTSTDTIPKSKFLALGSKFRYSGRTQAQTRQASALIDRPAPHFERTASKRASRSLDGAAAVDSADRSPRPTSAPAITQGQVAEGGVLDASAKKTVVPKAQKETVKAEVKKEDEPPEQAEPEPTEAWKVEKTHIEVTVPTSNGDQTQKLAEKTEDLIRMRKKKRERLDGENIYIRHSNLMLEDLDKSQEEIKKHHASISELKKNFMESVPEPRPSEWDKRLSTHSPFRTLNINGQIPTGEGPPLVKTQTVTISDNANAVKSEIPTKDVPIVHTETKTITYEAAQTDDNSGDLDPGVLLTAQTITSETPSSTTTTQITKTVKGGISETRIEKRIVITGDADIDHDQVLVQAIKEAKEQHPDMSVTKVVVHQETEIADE
UniProt P35241: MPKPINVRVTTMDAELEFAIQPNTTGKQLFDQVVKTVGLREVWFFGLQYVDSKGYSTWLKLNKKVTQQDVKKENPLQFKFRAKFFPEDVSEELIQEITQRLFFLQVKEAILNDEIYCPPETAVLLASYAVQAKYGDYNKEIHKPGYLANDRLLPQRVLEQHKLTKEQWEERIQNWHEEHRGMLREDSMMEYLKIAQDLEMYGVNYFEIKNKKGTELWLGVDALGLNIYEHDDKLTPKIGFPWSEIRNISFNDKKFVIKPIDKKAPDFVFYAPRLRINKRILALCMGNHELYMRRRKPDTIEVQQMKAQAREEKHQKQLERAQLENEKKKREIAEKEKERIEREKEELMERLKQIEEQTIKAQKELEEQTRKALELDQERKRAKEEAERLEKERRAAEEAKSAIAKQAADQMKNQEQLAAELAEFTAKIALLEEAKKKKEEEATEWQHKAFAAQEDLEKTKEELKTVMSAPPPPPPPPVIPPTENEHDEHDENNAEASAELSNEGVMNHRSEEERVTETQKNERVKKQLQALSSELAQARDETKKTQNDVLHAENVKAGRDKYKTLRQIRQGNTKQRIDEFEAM
UniProt O14646: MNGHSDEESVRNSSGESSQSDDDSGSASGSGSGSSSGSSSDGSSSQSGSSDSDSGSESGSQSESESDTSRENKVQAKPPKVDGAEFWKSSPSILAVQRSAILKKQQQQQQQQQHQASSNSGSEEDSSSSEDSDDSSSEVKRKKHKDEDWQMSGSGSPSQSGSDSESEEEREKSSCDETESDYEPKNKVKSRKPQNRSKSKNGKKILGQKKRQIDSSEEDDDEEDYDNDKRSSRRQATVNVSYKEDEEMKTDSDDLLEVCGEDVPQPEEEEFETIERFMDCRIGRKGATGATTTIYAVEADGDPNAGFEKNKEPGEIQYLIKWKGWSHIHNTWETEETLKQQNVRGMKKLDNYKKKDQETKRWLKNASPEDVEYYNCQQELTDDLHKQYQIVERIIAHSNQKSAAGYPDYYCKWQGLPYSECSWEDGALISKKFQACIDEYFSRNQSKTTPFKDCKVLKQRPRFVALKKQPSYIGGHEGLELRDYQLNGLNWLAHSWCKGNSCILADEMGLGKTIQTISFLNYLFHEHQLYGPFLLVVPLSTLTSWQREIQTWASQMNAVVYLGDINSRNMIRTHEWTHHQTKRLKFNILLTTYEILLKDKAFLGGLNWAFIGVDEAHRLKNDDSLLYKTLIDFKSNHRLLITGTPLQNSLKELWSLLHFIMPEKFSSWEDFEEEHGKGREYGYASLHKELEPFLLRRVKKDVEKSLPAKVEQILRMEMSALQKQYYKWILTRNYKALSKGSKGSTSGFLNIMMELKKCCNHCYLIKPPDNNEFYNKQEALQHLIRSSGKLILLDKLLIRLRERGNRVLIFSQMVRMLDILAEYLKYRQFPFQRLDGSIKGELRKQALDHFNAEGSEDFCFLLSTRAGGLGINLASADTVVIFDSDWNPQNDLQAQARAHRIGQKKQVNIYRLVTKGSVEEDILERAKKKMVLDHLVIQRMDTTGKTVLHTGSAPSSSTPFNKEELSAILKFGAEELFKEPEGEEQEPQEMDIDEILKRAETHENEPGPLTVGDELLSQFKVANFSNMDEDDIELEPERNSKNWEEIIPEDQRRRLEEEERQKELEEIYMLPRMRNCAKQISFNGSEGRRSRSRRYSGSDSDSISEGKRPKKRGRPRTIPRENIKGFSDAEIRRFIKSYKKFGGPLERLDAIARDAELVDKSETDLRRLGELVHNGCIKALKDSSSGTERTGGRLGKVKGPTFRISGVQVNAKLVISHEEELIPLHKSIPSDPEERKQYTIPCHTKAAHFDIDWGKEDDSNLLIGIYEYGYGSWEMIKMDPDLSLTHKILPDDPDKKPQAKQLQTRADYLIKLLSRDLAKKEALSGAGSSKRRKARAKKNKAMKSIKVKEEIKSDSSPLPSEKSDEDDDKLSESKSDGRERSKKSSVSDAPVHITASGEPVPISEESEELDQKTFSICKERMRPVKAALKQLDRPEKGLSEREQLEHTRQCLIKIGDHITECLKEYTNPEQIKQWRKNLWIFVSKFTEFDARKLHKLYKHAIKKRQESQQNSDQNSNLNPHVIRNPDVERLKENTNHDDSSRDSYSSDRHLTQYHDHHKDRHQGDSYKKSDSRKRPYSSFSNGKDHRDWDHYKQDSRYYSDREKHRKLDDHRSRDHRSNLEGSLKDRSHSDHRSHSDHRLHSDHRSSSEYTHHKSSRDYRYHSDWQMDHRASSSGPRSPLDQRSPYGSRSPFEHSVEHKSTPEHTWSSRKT
UniProt Q8IZL8: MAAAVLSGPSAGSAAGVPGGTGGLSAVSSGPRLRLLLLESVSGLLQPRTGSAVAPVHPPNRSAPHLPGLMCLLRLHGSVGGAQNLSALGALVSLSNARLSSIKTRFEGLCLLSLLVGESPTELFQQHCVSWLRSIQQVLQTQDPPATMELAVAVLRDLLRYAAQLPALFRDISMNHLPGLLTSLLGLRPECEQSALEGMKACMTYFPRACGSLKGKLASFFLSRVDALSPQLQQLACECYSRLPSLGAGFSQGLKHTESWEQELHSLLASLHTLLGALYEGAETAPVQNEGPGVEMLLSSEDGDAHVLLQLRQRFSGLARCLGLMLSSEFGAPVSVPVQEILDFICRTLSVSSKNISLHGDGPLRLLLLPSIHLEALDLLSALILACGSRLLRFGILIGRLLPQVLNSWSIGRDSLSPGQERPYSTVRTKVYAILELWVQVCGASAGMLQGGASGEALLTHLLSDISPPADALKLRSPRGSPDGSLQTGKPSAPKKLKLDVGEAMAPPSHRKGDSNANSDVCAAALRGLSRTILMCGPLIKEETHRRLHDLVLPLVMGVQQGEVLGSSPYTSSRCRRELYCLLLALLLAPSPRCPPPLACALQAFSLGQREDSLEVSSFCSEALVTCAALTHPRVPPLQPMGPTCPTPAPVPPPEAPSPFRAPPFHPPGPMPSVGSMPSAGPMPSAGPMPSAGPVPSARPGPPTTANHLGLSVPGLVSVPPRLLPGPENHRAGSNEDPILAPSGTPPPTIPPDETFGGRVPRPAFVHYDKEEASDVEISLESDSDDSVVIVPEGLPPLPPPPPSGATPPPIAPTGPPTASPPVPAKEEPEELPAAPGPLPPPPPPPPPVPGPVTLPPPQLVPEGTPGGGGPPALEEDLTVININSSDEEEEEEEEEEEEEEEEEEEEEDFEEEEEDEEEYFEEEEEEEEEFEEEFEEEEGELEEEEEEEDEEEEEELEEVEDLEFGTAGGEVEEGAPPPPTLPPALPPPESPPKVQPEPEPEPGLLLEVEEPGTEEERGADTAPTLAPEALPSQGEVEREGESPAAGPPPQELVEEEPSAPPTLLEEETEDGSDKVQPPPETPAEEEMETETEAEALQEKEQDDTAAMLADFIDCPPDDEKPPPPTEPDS
UniProt Q9Y4B6: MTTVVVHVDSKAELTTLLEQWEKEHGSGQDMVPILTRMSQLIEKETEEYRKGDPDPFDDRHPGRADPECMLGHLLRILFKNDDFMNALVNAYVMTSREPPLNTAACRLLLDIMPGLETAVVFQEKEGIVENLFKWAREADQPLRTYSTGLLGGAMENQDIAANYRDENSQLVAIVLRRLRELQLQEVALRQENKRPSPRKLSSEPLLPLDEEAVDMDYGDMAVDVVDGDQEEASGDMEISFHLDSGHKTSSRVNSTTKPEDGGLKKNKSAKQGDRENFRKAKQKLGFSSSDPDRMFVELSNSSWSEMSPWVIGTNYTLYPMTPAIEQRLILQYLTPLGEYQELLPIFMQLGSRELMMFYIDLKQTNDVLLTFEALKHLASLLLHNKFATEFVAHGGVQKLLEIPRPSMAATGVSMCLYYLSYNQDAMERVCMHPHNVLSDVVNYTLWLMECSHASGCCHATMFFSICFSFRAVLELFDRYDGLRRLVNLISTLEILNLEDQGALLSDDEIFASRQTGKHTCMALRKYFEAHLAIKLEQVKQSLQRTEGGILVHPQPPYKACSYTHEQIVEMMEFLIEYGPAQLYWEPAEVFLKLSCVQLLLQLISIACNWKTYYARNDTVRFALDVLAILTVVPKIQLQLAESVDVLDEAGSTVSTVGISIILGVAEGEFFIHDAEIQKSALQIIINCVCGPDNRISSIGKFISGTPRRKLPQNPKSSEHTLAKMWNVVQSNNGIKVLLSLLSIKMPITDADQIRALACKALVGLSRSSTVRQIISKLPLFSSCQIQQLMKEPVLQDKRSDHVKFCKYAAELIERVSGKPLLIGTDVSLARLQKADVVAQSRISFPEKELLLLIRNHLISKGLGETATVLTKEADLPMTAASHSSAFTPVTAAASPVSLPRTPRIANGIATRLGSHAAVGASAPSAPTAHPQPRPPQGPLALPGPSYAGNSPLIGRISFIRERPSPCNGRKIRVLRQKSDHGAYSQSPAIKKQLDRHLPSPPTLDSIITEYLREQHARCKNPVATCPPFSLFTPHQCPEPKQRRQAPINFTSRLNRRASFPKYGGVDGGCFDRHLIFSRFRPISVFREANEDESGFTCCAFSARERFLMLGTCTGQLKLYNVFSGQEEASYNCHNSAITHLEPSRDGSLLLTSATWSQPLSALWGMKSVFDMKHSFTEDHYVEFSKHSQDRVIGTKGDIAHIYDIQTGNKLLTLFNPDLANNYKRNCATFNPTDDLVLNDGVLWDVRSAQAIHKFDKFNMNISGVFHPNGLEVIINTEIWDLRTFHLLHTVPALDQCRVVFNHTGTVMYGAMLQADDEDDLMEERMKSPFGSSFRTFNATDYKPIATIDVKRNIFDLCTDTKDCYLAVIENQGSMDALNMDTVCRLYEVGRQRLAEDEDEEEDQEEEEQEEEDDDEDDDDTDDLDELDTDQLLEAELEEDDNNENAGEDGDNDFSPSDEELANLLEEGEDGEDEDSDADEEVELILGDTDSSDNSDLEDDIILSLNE

Tests used:
[1] = biological target: recombinant GST-Merlin FERM domain (UniProt P35240); experiment: pull-down; 'fishing': recombinant GST-Merlin proteins from Sf9 on Glutathione Sepharose beads (10 μl) added to cell lysates for 2 h, washed, eluted with LDS sample buffer; Western blot; only the target purified
[2] = biological target: Merlin (human (endogenous in IOMM-Lee)) (UniProt P35240); experiment: co-IP; IP of endogenous Merlin or control antibody from IOMM-Lee meningioma cells; endogenous proteins by Western blot
[3] = biological target: Flag-erythrocyte membrane protein band 4.1 (EPB41) (UniProt P11171); experiment: co-IP; Flag-tagged proteins transfected in HEK293T; lysis in PBS-E LB (1% TX100); Flag (M2) agarose IP; endogenous proteins by Western blot; in some panels after siRNA knock-downs or in dense or sparse cells
[4] = biological target: Flag-Moesin (UniProt P26038); experiment: as above
[5] = biological target: Flag-Radixin (UniProt P35241); experiment: as above
[6] = biological target: Flag-Ezrin (UniProt P15311); experiment: as above
[7] = biological target: Flag-Merlin isoform 1 (UniProt P35240); experiment: as above

Substance	binding [1]	binding [2]	binding [3]	binding [4]	binding [5]	binding [6]	binding [7]
CHD1 (from UniProt O14646 1-1710)	binds	binds	no binding	no binding	no binding	no binding	binds
PELP1 (from UniProt Q8IZL8 1-1130)	–	–	no binding	no binding	no binding	no binding	binds
VPRBP (from UniProt Q9Y4B6 1-1507)	binds	binds	–	–	–	–	–
